# Results published in PubChem BioAssay AID720708 (National Center for Advancing Translational Sciences (NCATS), 2013).
# In all, about 360,000 compounds went through this assay and about 660 (0.18%) were called active. Inconclusive results, whose numbers are uncertain, are shown with a selection of clear calls. Calls come from the whole dose curve; as a rule, active = well fitted inhibition curve with a large enough effect; inconclusive = small, poorly fitted or top-dose-only effect; inactive = no such curve, though single readings can be large or run the other way. No potency is given beside an inconclusive call; the fits are too rough.
# Target: Rap guanine nucleotide exchange factor 4 (Homo sapiens) (UniProt Q8WZA2)
# Chain of UniProt Q8WZA2 (Q8WZA2 whole entry, looked up): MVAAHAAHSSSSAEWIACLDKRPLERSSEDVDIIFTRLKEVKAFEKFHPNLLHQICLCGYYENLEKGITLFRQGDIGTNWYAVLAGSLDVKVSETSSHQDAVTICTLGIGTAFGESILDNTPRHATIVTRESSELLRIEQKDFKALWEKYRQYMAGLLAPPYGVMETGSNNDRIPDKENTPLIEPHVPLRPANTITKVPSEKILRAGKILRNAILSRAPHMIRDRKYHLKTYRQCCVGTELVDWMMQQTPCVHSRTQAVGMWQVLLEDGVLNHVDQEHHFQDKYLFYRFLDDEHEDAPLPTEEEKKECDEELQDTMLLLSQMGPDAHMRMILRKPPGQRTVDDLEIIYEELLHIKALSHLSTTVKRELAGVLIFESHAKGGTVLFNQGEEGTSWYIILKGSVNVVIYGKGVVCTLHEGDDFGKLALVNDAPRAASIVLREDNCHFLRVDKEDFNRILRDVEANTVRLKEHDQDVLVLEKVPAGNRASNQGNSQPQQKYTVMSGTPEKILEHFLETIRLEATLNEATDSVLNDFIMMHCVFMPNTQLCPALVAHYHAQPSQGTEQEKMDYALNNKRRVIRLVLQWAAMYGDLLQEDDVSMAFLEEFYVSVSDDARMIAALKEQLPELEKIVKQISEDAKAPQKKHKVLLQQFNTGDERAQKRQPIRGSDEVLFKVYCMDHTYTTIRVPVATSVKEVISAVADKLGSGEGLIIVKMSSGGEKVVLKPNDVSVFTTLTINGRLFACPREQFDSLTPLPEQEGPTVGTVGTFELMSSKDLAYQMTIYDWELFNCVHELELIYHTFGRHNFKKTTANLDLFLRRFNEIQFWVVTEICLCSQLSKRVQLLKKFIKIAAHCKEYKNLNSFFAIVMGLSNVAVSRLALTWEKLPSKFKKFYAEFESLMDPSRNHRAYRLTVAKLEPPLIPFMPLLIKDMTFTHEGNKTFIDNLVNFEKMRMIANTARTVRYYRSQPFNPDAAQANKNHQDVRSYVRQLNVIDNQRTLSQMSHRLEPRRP
# Assay: qHTS for Antagonist of cAMP-regulated guanine nucleotide exchange factor 2 (EPAC2): primary screen; note: nearly all actives have a fitted effect of over 45% in size
# Settings: EPAC2 GEF exchange of Rap1B-BODIPY-GDP, fluorescence; activity, negative = inhibition: at 114 µM (top of the series) unless noted
# % is set by controls: 0 for no effect and ±100 for the full control effect; potency is the fitted concentration of half-maximal effect; tags give direction and shape of the fitted curve.
Structure (SMILES),Potency,"activity, negative = inhibition"
CCOc1cc(O)c(-c2[nH]ncc2-c2nc(C)cs2)cc1CC,"inconclusive [inhibitor, partial curve]",
C/C=C(/C)C(=O)O[C@@H]1c2c(ccc3ccc(=O)oc23)O[C@@H]1C(C)(C)OC(=O)/C(C)=C\C,"inconclusive [inhibitor, full curve, poor fit]",
CCc1cccc(C)c1NC(=O)CSc1nnc(-c2cc3cc(Br)ccc3o2)n1CC,"inconclusive [inhibitor, single point]",
O=C(OCC(=O)N(C1CCCCC1)C1CCCCC1)c1ccc(O)cc1,"inconclusive [inhibitor, single point]",
N#CC(C(=O)NCc1ccco1)c1nc2ccccc2nc1N1CCOCC1 (stereo unspecified),"inconclusive [inhibitor, partial curve]",
C=CCNC(=O)C1CC1(c1cccc(C)c1)c1cccc(C)c1 (stereo unspecified),"inconclusive [inhibitor, partial curve]",
CN(C)C(=O)c1cccc(-c2cnc3c(NC=O)cc(-c4ccc(F)cc4)cn23)c1,"inconclusive [inhibitor, full curve]",
COc1ccc(CN2CCNC(=O)C2CC(=O)NCc2cn3ccc(C)cc3n2)c(OC)c1 (stereo unspecified),"inconclusive [inhibitor, full curve, poor fit]",
CCCCCCCCN1C(=O)[C@H](CC(=O)NCc2cccs2)C[C@@]2(C(=O)OC)CC(C)(C)CC=C12,"inconclusive [inhibitor, full curve]",
O=C(O)c1cccc(CN2C(=O)S/C(=C/c3ccccc3[N+](=O)[O-])C2=O)c1,"inconclusive [inhibitor, single point]",
COC(=O)C1=C(C)OC(N)=C(C#N)C1c1ccc(OC)c(CSc2ccccn2)c1 (stereo unspecified),"inconclusive [inhibitor, single point]",
Clc1ccc(C2Nc3cccc4cccc(c34)N2)c(Cl)c1,active: 10 µM,
Cc1cccc(OCCn2c(-c3ccco3)nc3ccccc32)c1,"inconclusive [inhibitor, single point]",
CNC(=O)c1cn(-c2ccc(Cl)cc2)c(=O)c2ccccc12,,inactive: -2.85%
CCCCC[C@@H]1[C@H]2[C@H]3C(=O)N(c4ccccc4)C(=O)[C@H]3CC(=O)[C@H]2[C@H](c2ccccc2)N1S(=O)(=O)c1ccc(C)cc1,"inconclusive [inhibitor, single point]",
CCOC(=O)C1=CCN(S(=O)(=O)c2ccc(C)cc2)C1c1ccc(CC)cc1 (stereo unspecified),,inconclusive: -30.7% [inhibitor]
COc1ccc2nc(C)cc(N/N=C/c3ccccc3)c2c1,"inconclusive [inhibitor, partial curve]",
CCCc1nc2c(C)cc(Br)cn2c1Cc1ccccc1,"inconclusive [inhibitor, partial curve]",
Cc1ccc2nc(-c3ccccc3)c(Cc3ccsc3)n2c1,"inconclusive [inhibitor, partial curve]",
CCCCCc1c(-c2ccccc2F)ncn1CCc1ccccc1OC,"inconclusive [inhibitor, partial curve]",
O=C(Cc1c(F)cccc1Cl)Nc1nccs1,,inactive: -5.96%
CC(C)(C)Cc1nc2ccccc2n1CCc1ccccc1,"inconclusive [inhibitor, single point]",

Structure (SMILES),Potency,"activity, negative = inhibition"
CCOC(=O)C1=NNC(C(=O)c2ccccc2)C1c1ccc(C)cc1 (stereo unspecified),"inconclusive [inhibitor, partial curve]",
COc1ccc(/C=C2/SC(=S)N(NS(=O)(=O)c3ccccc3)C2=O)cc1,"inconclusive [inhibitor, partial curve]",
CCOC(=O)c1c(NC(=O)CN2CCCCC2)sc2c1CCCC2O (stereo unspecified),"inconclusive [inhibitor, partial curve]",
COc1ccc(-c2[nH]c(-c3ccc(C)cc3)nc2SCC(=O)Nc2nccs2)cc1,,inactive: -0.211%
CCc1cccc(CC)c1N1C(=O)C2=C(SCCCS2)C1=O,,inactive: -7%
C/C(=N/NC(=O)c1cccc(N2CCCC2=O)c1)c1ccncc1,,inactive: -0.668%
COc1ccc(/C=C/C(=O)Nc2ccc(S(=O)(=O)Nc3cc(C)nc(C)n3)cc2)cc1OC,"inconclusive [inhibitor, single point]",
COc1ccc(N2CCN(C(c3ccccc3OC)c3nnnn3C3CCCC3)CC2)cc1 (stereo unspecified),,inactive: -3.92%
COC(=O)C(Cc1ccccc1)NC(=O)CNC(=O)c1ccccc1OC (stereo unspecified),,inactive: -6.97%
FC(F)(F)c1cccc(CN2CCC(c3cc(-c4cccs4)n[nH]3)CC2)c1,"inconclusive [inhibitor, partial curve]",
O=C1Nc2ccccc2N=C(c2ccccc2)C1Br (stereo unspecified),,inactive: -24.9%
Cc1noc(C)c1COc1ccccc1C(=O)NC(C)CCc1ccccc1 (stereo unspecified),"inconclusive [inhibitor, partial curve]",
Nc1ccccc1SCc1c(Cl)cccc1Cl,"inconclusive [inhibitor, partial curve]",
O=C1CNc2ccc(C(=O)N3CCN(c4ccccn4)CC3)cc2N1,,inactive: -1.38%
Cn1cc(C2OC(=O)c3ccccc32)c2ccccc21 (stereo unspecified),"inconclusive [inhibitor, partial curve]",
CCCCN1C(=O)C(C(=O)OCc2ccccc2)CC2=C1CCCC2=O (stereo unspecified),"inconclusive [inhibitor, partial curve]",
Cc1ccc(S(=O)(=O)N2C(=O)c3cccc4cccc2c34)cc1,"inconclusive [inhibitor, full curve]",
C=CCN(CC=C)Cc1cc(=O)oc2cc(OC)c(Cl)cc12,active: 31.6 µM,
CCc1ccc2c(CN3CCN(S(=O)(=O)c4cccs4)CC3)cc(=O)oc2c1,"inconclusive [inhibitor, partial curve]",
O=S(=O)(Oc1ccccc1N1CCCCC1)c1ccccc1,"inconclusive [inhibitor, partial curve]",
CCN(CC)CC1CN(N=Cc2ccc([N+](=O)[O-])o2)C(=O)O1 (stereo unspecified),,inactive: 19.2%
CCCCOc1ccc2c(c1)C(=O)c1cc(O)ccc1-2,"inconclusive [inhibitor, partial curve]",

Structure (SMILES),Potency,"activity, negative = inhibition"
CCCc1nc2ccc(C(=O)OC)cn2c1Cc1ccccc1,"inconclusive [inhibitor, full curve]",
Cc1ccc(NC(=O)CN2C(=O)S/C(=C\c3cccn3-c3cccc(C(=O)O)c3)C2=O)c(C)c1,"inconclusive [inhibitor, full curve]",
COc1ccccc1NC(=O)C1=C(C)Nc2ncnn2C1c1ccccc1C (stereo unspecified),"inconclusive [inhibitor, partial curve]",
N=c1n(CC(=O)c2ccc(Br)cc2)c2ccccc2n1Cc1ccccc1,,inactive: 5.69%
CC(C)(C)c1ccc(C(=O)NCCCN2CCN(CCCNC(=O)c3ccc(C(C)(C)C)cc3)CC2)cc1,"inconclusive [inhibitor, partial curve]",
CCOC(=O)c1ccc(N=C2SC(C(=O)NC)CC(=O)N2CCc2ccccc2)cc1 (stereo unspecified),"inconclusive [inhibitor, single point]",
C[C@H](CO)N1C[C@H](C)[C@@H](CN(C)C(=O)C2CCOCC2)Oc2ncc(Br)cc2C1=O,"inconclusive [inhibitor, partial curve]",
CCC(C(=O)OCC(=O)Nc1ccc(C(N)=O)cc1)c1ccccc1 (stereo unspecified),"inconclusive [inhibitor, single point]",
CC(C)Nc1nc(-c2ccccc2)nnc1-c1ccccc1,"inconclusive [inhibitor, partial curve]",
Cc1ccccc1C1=C/C(=C(\SS/C(C(=O)c2ccc(OCC(=O)O)c(Cl)c2Cl)=C2\C=C(c3ccccc3C)SS2)C(=O)c2ccc(OCC(=O)O)c(Cl)c2Cl)SS1,active: 70.8 µM,
COC(=O)c1cccc(CN2C(=O)C(C)Oc3ccc(C)cc32)c1 (stereo unspecified),,inactive: -29%
COC(=O)C1=C(C)N(CCc2cc(OC)c(OC)c(OC)c2)C(=O)N[C@H]1c1ccccc1,,inactive: 9.49%
Cc1cccc(C2C3=C(Nc4[nH]n(-c5ccccc5)c(=O)c42)c2ccccc2C3=O)c1 (stereo unspecified),"inconclusive [inhibitor, partial curve]",
Cc1ccc(S(=O)(=O)N2[C@@H](c3ccc(Cl)c(Cl)c3)C(C(=O)O)=C[C@H]2CC2CCCC2)cc1,"inconclusive [inhibitor, partial curve]",
CCOC(=O)N(C)c1c(CC)nc2c(OCc3ccc(S(C)(=O)=O)cc3)cccn12,"inconclusive [inhibitor, partial curve]",
C[C@H]1[C@@H](Cc2cc(Cl)cc(Cl)c2)N(c2ccccc2)c2ccccc2CN1Cc1ccccc1,,inactive: -14.9%
O=C(/C=C/c1ccccc1)c1c[nH]c2ccccc12,,inactive: 3.81%
CCCC(=O)Oc1c(S(=O)(=O)c2ccc(C)cc2)c(C)nn1C(C)(C)C,"inconclusive [inhibitor, partial curve]",
CCCCN(CCCC)Cc1cc(=O)oc2cc(C)c(Cl)cc12,"inconclusive [inhibitor, full curve]",
CCCNC(=O)C1CC(=O)N(c2ccc(OCc3ccc(Cl)cc3)cc2)C1 (stereo unspecified),"inconclusive [inhibitor, full curve, poor fit]",
O=C1NC(=S)S/C1=C/c1ccc(OC(=O)c2ccco2)cc1,"inconclusive [inhibitor, full curve]",
COC(=O)CC1(c2ccc(OC)cc2)C(=O)c2ccccc2C1=O,active: 44.7 µM,
